From PMC4336329 (PLoS ONE, 2015) come the findings set out here.

Among all 310,000 compounds or so, about 2,200 (0.71%) showed an effect of 50% or more. The effect is printed as a negative number. Some of the results follow.

Sequence of human ether-à-go-go-related gene (hERG) potassium channel (Q12809 whole entry, looked up): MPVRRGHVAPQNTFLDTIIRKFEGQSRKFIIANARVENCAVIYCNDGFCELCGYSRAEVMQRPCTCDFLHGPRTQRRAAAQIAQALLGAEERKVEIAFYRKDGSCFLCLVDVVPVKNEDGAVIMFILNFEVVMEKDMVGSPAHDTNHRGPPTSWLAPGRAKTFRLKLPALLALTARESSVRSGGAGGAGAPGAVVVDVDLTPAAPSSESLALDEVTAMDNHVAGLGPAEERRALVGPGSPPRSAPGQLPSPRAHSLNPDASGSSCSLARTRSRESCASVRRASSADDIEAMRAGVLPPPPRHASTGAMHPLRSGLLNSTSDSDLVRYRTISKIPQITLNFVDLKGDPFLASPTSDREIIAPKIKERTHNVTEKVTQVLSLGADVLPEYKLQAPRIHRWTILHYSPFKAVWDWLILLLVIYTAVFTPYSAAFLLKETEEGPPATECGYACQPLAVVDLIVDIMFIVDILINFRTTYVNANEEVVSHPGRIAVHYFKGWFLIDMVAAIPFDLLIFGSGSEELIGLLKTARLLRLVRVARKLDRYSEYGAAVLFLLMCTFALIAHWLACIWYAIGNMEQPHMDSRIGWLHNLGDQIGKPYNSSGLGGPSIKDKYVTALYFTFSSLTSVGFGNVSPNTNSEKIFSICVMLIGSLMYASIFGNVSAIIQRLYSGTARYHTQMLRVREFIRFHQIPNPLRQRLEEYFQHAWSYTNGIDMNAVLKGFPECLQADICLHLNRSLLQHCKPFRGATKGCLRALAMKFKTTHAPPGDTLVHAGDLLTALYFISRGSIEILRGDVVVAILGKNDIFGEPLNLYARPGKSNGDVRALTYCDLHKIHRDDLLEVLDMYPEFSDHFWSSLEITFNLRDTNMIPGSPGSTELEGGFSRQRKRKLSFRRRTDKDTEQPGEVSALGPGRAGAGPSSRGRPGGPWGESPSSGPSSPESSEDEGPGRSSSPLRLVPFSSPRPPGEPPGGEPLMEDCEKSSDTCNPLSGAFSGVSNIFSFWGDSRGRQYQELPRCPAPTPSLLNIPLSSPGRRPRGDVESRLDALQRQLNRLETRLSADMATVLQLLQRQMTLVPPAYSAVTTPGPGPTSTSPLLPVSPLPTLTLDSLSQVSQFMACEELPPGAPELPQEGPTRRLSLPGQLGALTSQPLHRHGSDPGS

This assay addresses human ether-à-go-go-related gene (hERG) potassium channel (human, UniProt Q12809). As to the kind of experiment: primary screen, population patch clamp on CHO cells stably expressing hERG.
In the case of `CCOc1c(Cl)cc(CNCC(C)C)cc1Cl.Cl`, the “hERG current change (%, negative = inhibition) at 1uM” value was 8.15%. Under `CCCCCSc1cc(O)c(C(CNC)C(C)C)cc1OC.O=C(O)/C=C\C(=O)O` (stereo not drawn) stands -1.06%; under `COc1ccc(CCCc2nnc(SCc3nc4ccccc4c(=O)[nH]3)n2C)cc1`, 8.12%; under `CCCCn1c2ccc(F)cc2c2nnc(NN)nc21`, 9.16%.

Take `O=C(COC(=O)Cc1n[nH]c(=O)c2ccccc12)NNC(=O)c1ccc(Cl)cc1`: the “hERG current change (%, negative = inhibition) at 1uM” value is reported as -3.18%. The same measure for `COc1ccccc1NC(=O)C1=C(C)Nc2nnnn2C1c1cc(Br)ccc1OC` (stereo not drawn): 9.68%; for `O=c1oc(-c2ccccc2NS(=O)(=O)c2ccc3ccccc3c2)nc2ccccc12`: 16.5%. The same measure for `COc1ccccc1-c1c(C)nn2c(C)cc(C)nc12`: -1.21%; for `O=C(Nc1ccc(-c2cn3ccsc3n2)cc1)C1COc2ccccc2O1` (stereo not drawn): 12.6%. Under `C/C(=C\C(=O)c1ccc(Cl)cc1)Nc1ccc(Br)cc1` stands 10.3%; under `COc1ccc(-n2nc(C(=O)NCC(=O)N3CCN(c4ccccn4)CC3)c3ccccc3c2=O)c(OC)c1`, 11%; under `O=C(Nc1ccccc1F)c1cc(Cl)sc1Cl`, 11.3%. As to `CC1=NN(c2ccccc2)C(=O)/C1=C/c1c(O)[nH]c(=O)[nH]c1=O`, the “hERG current change (%, negative = inhibition) at 1uM” value stood at 11%. Under `Cn1c(NN=O)nc2ccccc21` stands 17.6%; under `CC1(C)C2([N+](=O)[O-])CN3CC1([N+](=O)[O-])CN(C2)C3C(O)C(O)C(O)CO` (stereo not drawn), 15.4%; under `O=C(NC1(Cc2ccccc2)CCN(CCCc2ccccc2)C1=O)c1ccccc1` (stereo not drawn), 13.7%. `O=C1CC(c2ccccc2)CC(O)=C1C=NCc1ccncc1` (stereo not drawn): the “hERG current change (%, negative = inhibition) at 1uM” value is 4.86%. The same measure for `C/C(=N\NC(=O)c1csc(C)c1C)c1ccc(C)s1`: -0.21%.

Regarding `NC(=O)C1CCN(C2=C(NS(=O)(=O)c3ccccc3)C(=O)c3ccccc3C2=O)CC1`, the “hERG current change (%, negative = inhibition) at 1uM” value is recorded as 5.89%. For the compound `COc1ccc(/C=N/NC(=O)c2ccc(NC(=O)C3CCCCC3)cc2)cc1O`, the “hERG current change (%, negative = inhibition) at 1uM” value amounted to 8.66%.

For `COCCN1C(=O)c2cc(C(=O)Nc3ccc(C)c(F)c3)ccc2C1Nc1ccc(C)c(F)c1` (stereo not drawn), the “hERG current change (%, negative = inhibition) at 1uM” value was determined as 6.09%. The same measure for `O=Nc1c2ccc[nH]c-2c2ccc([N+](=O)[O-])cc12`: 10.3%; for `N/C(=N\c1nc2c(c(=O)[nH]1)CCCC2)Nc1ccccc1Sc1ccccc1`: 2.21%; for `CC(=O)NCCC(=O)Nc1cc(F)ccc1C`: 8.03%. In the case of `O=C1CC(N2CCN(c3ccc(F)cc3)CC2)C(=O)N1Cc1cccs1` (stereo not drawn), the “hERG current change (%, negative = inhibition) at 1uM” value is reported as -6.96%. Under `COc1ccc(/C=C/c2nc(-c3ccccc3O)n(-c3ccccc3)n2)cc1` stands 4.95%; under `Cc1oc2ccc(Br)cc2c(=O)c1-c1nn[nH]n1`, 2.52%; under `Cc1cccc(C)c1NC(=O)c1c[nH]c2ccccc12`, 11.7%. Turning to `CC(=O)N1CCOc2ccc(S(=O)(=O)N3CCC(C(=O)Nc4ccc(C)c(C)c4)CC3)cc21`, the “hERG current change (%, negative = inhibition) at 1uM” value is -2.04%. Under `Cc1noc(NC(=O)c2ccc(F)cc2)c1C#N` stands 12.5%; under `Cc1nnc(SCC(=O)NNC(=O)COc2ccc(Cl)cc2)n1C`, 15.5%; under `Cc1cc(-c2nnc(CCC(=O)NCc3cc(F)cc(C(F)(F)F)c3)o2)no1`, 2.53%.

With `O=C(Cn1cc2c(n1)CCCC2)NCc1cccs1`, the “hERG current change (%, negative = inhibition) at 1uM” value amounted to 9.19%. Under `O=[N+]([O-])c1ccc(N2CCCC(C(F)(F)F)C2)c2ccncc12` (stereo not drawn) stands 13.3%; under `CC(C)c1cc(C(=O)Nc2cccnc2)no1`, 3.72%; under `CCOc1cc(C2c3c(oc4cc(C)c(Cl)cc4c3=O)C(=O)N2Cc2ccco2)ccc1O` (stereo not drawn), 17.3%.

Turning to `Fc1ccccc1C1c2[nH]c3ccccc3c2CCN1Cc1cccn1-c1ncccn1` (stereo not drawn), the “hERG current change (%, negative = inhibition) at 1uM” value was -11.9%. The same measure for `O=C(COC(=O)c1cc2ccccc2o1)c1ccccc1`: 2.17%; for `O=C(O)CC1(CC(=O)N2CCC(C(=O)O)CC2)CCCC1`: 12.6%.

For `CCCCn1c(N)c(N(CCC(C)C)C(=O)C2CCCO2)c(=O)[nH]c1=O` (stereo not drawn), the “hERG current change (%, negative = inhibition) at 1uM” value is recorded as 12.8%. The same measure for `Cc1c(C(=O)N2CCCCC2)c(S(=O)(=O)Nc2ccc(F)cc2F)c(C)n1C`: 9.18%; for `COc1ccc(-n2c(C)cc(C(=O)CCl)c2C)cc1`: 11.6%; for `CCCCn1c(N)c(N(C)C(=O)c2ccc(OCC3CCCO3)cc2)c(=O)[nH]c1=O` (stereo not drawn): 12.9%. The same measure for `Fc1ccc(-c2nn3c(C4COc5ccccc5O4)nnc3s2)cc1` (stereo not drawn): 6.47%; for `COc1c(Cl)ccc(Cl)c1C(=O)NCc1ccco1`: 1.97%; for `CCOc1ccc(NC(=S)NNC(=O)c2ccc(Br)cc2)cc1`: 12.1%. The same measure for `O=C(CN1CCN(C(=O)c2cncn2-c2ccc(F)cc2)CC1)Nc1ccccc1C(F)(F)F`: -68.3%. On to `O=C(NCCCCc1ccccc1)C1CCCC1`, for which the “hERG current change (%, negative = inhibition) at 1uM” value is recorded as 8.16%. Under `O=C(CN(Cc1ccccc1)S(=O)(=O)c1ccc2c(c1)OCCO2)N/N=C/c1cccc(Br)c1` stands -8.39%; under `COc1cc(CN2CCN(c3ccc(C)cc3)CC2)cc([N+](=O)[O-])c1O`, 3.29%; under `Cc1cc(C)cc(N2CC(O)Cn3c2nc2c3c(=O)[nH]c(=O)n2C)c1` (stereo not drawn), 9.84%.

In the case of `Cc1ccccc1C(=O)Oc1cccc2c(O)cccc12`, the “hERG current change (%, negative = inhibition) at 1uM” value is recorded as 14.6%. For `CCc1nc(Nc2ccc3c(c2)OCO3)c2oc3ccccc3c2n1.Cl`, the “hERG current change (%, negative = inhibition) at 1uM” value is 12.2%. On to `O=C(CCNC(=O)c1ccc(Br)o1)NCc1ccccn1`, for which the “hERG current change (%, negative = inhibition) at 1uM” value came out at 1.3%.

Regarding `Cn1cc(SCC(=O)NC2CCCCC2)c2ccccc21`, the “hERG current change (%, negative = inhibition) at 1uM” value is recorded as 9.81%.

As to `COc1cccc(NC(=O)Nc2nnc(Cc3ccccc3F)s2)c1`, the “hERG current change (%, negative = inhibition) at 1uM” value is listed as 16.4%. The same measure for `Cc1cc(NC(=O)C(=O)c2cn(C)c3ccccc23)no1`: 2.75%.
